Test results published in patent US6706740B2, “Fungicidal heterocyclic aromatic amides and their compositions, methods of use and preparation” (Dow AgroSciences LLC, priority 1999, dated 2004).

The molecules below were run on Plasmopara viticola—PLASVI (assay: whole plant or invertebrate). Details: Plasmopara, 24 h, read-out: PLASVI in vivo 1 Day Protectant, 100 ppm, 24 hour protectant, grape; control of fungal infection vs untreated plants.
Format: in vivo

Row | Structure (SMILES) | pest or weed control at 100 ppm [%]
1 | COc1ccnc(C(=O)NCC#CCCl)c1O [Compound 239] | 25 to 74
2 | CC(C)C(=O)OC1CCC(NC(=O)c2ncccc2O)CC1 (stereo not drawn) [Compound 210] | < 25
3 | Cc1ccnc(C(=O)NC2COC(=O)[C@H](Cc3ccccc3)[C@@H](OC(=O)C(C)C)[C@H](C)OC2=O)c1O (stereo partly drawn) [Compound 237] | < 25
4 | COc1ccnc(C(=O)NC2CC(c3ccco3)CC(C)(C)C2)c1O (stereo not drawn) [Compound 258] | < 25
5 | O=C(N[C@H]1CC2CC1[C@@H]1CCC[C@H]21)c1ncccc1O (stereo partly drawn) [Compound 206] | < 25
6 | COc1ccnc(C(=O)NC2CC(C)(C)CC(C)(C(=O)OCCC(C)(C)C)C2)c1O (stereo not drawn) [Compound 261] | 25 to 74
7 | O=C(NCc1ccc(Cl)cc1)c1ncccc1O [Compound 220] | 25 to 74
8 | COc1ccnc(C(=O)NC2CC(C)(C)CCCC2C)c1O (stereo not drawn) [Compound 277] | < 25
9 | O=C(NCCc1ccc(Cl)cc1)c1ncccc1O [Compound 233, N-(2-(4-CHLOROPHENYL)ETHYL)-3-HYDROXYPYRIDINE-2-CARBOXAMIDE] | 25 to 74
10 | COc1ccccc1CNC(=O)c1ncccc1O [Compound 224] | < 25
11 | COc1ccnc(C(=O)NCC2C(C=C(C)C)C2(C)C)c1O (stereo not drawn) [Compound 241] | 25 to 74
12 | CC1(C)CC(NC(=O)c2ncccc2O)CC(C)(C)C1=O [Compound 205] | 25 to 74
13 | COc1ccnc(C(=O)NC2CC(C)(C)CC3(C2)CC3(F)F)c1O (stereo not drawn) [Compound 255] | < 25
14 | COc1ccnc(C(=O)NC2CC(C)(C)CC(C)(C(=O)CCCc3ccccc3)C2)c1O (stereo not drawn) [Compound 276] | 25 to 74
15 | COc1ccnc(C(=O)NC2CCc3ccccc3C2=O)c1O (stereo not drawn) [Compound 285] | < 25
16 | COc1ccnc(C(=O)NC2CCC[C@H]3[C@H]4CC[C@H](C4)[C@@H]23)c1O (stereo partly drawn) [Compound 291] | < 25
17 | COc1ccnc(C(=O)NC2CCC(Sc3ccccc3)CC2)c1O (stereo not drawn) [Compound 275] | < 25
18 | O=C(Nc1cccc(C(F)(F)F)c1)c1ncccc1O [Compound 214] | 25 to 74

Same assay, conditions: Plasmopara, 24 h, read-out: PLASVI in vivo 1 Day Protectant, 100 ppm, grape, 24 hour protectant, % control of fungal infection vs untreated plants

Row | Structure (SMILES) | pest or weed control at 100 ppm [%]
19 | COc1ccnc(C(=O)Nc2ccc(Oc3ccc(C(F)(F)F)cc3)cc2)c1OC(C)=O [Compound 709] | < 25
20 | CCC(=O)Oc1c(OC)ccnc1C(=O)N[C@H]1COC(=O)[C@H](Cc2ccccc2)[C@@H](OC(=O)C(C)C)[C@H](C)OC1=O [Compound 598] | < 25
21 | COc1ccnc(C(=O)N[C@H]2COC(=O)[C@H](Cc3ccccc3)[C@@H](OC(C)=O)[C@H](C)OC2=O)c1OC(C)=O [Compound 596] | 25 to 74
22 | CCOC(=O)Oc1c(OC)ccnc1C(=O)N[C@H]1COC(=O)[C@H](Cc2ccccc2)[C@@H](OC(=O)C(C)C)[C@H](C)OC1=O [Compound 679] | 25 to 74
23 | COc1ccnc(C(=O)N[C@H]2COC(=O)[C@H](Cc3ccccc3)[C@@H](OC(=O)C(C)C)[C@H](C)OC2=O)c1OC(=O)C(C)(C)C [Compound 605] | < 25
24 | COc1ccnc(C(=O)N[C@H]2COC(=O)[C@H](Cc3ccccc3)[C@@H](OC(=O)C(C)C)[C@H](C)OC2=O)c1OC(=O)CCc1ccccc1 [Compound 650] | < 25
25 | COc1ccnc(C(=O)N[C@H]2COC(=O)[C@H](Cc3ccccc3)[C@@H](OC(=O)C(C)C)[C@H](C)OC2=O)c1OC(=O)O[C@@H]1C[C@H](C)CC[C@H]1C(C)C [Compound 690] | < 25

Same assay, conditions: Plasmopara, 24 h, read-out: PLASVI in vivo 1 Day Protectant, 100 ppm, grape, 24 hour protectant; control of fungal infection vs untreated plants

Row | Structure (SMILES) | pest or weed control at 100 ppm [%]
26 | COc1ccnc(C(=O)N[C@@H](CO)C(=O)O[C@@H](C)[C@H](OC(=O)C(C)C)[C@@H](Cc2ccccc2)C(=O)O)c1O [Compound 341] | < 25
27 | COc1ccnc(C(=O)Nc2ccc(Oc3ccc(C(F)(F)F)cc3)cc2)c1O [Compound 425, 3-HYDROXY-4-METHOXY-N-(4-(4-TRIFLUOROMETHYLPHENOXY)PHENYL)-PYRIDINE-2-CARBOXAMIDE] | < 25
28 | COc1ccnc(C(=O)Nc2ccc(NC(=O)c3cccc(C(F)(F)F)c3)cc2)c1O [Compound 453] | < 25
29 | COc1ccnc(C(=O)NC(COC(=O)CC(C)O[Si](C)(C)C(C)(C)C)C(=O)OC(C)C)c1O (stereo not drawn) [Compound 354] | < 25
30 | COc1ccnc(C(=O)Nc2ccccc2Oc2ccc(C#N)cc2)c1O [Compound 419] | < 25
31 | COc1ccnc(C(=O)Nc2ccc(Cc3cccc(C(F)(F)F)c3)cc2)c1O [Compound 404] | 25 to 74
32 | COc1ccc(Oc2ccccc2NC(=O)c2nccc(OC)c2O)cc1 [Compound 429] | < 25
33 | CO/N=C(/c1ccc(NC(=O)c2nccc(OC)c2O)cc1)c1ccc(C(F)(F)F)cc1 [Compound 409] | < 25
34 | CCCO[C@@H]1[C@@H](OCCC)[C@H](OCCC)CO[C@H]1NC(=O)c1nccc(OC)c1O [Compound 331] | < 25
35 | COc1ccnc(C(=O)N[C@H]2COC(=O)[C@H](CC3CCCC3)[C@@H](OC(=O)C(C)C)[C@H](C)OC2=O)c1O [Compound 402] | 25 to 74
36 | COc1ccnc(C(=O)Nc2ccc(Nc3cccc(C(F)(F)F)c3)cc2)c1O [Compound 410] | < 25
37 | COc1ccnc(C(=O)NC(COC(=O)CC(C)OC(=O)CCc2ccccc2)C(=O)OC(C)C)c1O (stereo not drawn) [Compound 353] | 25 to 74
38 | CO/N=C(/c1ccc(NC(=O)c2nccc(OC)c2O)cc1)c1cccc(C(F)(F)F)c1 [Compound 408] | 25 to 74
39 | COc1ccnc(C(=O)N[C@H]2COC(=O)[C@H](Cc3ccccc3)[C@@H](OC(=O)c3ccccc3)[C@H](C)OC2=O)c1O [Compound 394] | < 25
40 | COc1ccnc(C(=O)N[C@@H]2C(=O)O[C@@H](C)C[C@@H](C)C(=O)O[C@@H]2C)c1O [Compound 381] | < 25
41 | COc1ccnc(C(=O)Nc2ccc(Oc3ccccc3C#N)cc2)c1O [Compound 420] | < 25
42 | COc1ccnc(C(=O)Nc2ccc(Oc3cccc(C)c3)cc2)c1O [Compound 416] | < 25
43 | COc1ccnc(C(=O)Nc2ccc(Oc3ccc(C)cc3)cc2)c1O [Compound 417] | < 25
44 | COc1ccnc(C(=O)Nc2ccc(Oc3ccc(C#N)cc3)cc2)c1O [Compound 422] | < 25
45 | COc1ccc(Oc2ccc(NC(=O)c3nccc(OC)c3O)cc2)cc1 [Compound 435] | < 25
46 | COc1ccc(Oc2cccc(NC(=O)c3nccc(OC)c3O)c2)cc1 [Compound 432] | < 25
47 | COc1ccnc(C(=O)NC(COC(=O)C(C)Cc2ccccc2)C(=O)OC(C)C)c1O (stereo not drawn) [Compound 351] | 25 to 74
48 | COc1ccnc(C(=O)Nc2cc(C)c(OC(=O)c3ccccc3)c(C)c2)c1O [Compound 456] | 25 to 74
49 | COc1ccnc(C(=O)N[C@H]2COC(=O)[C@H](Cc3ccccc3)[C@@H](OC(=O)C3CCCCC3)[C@H](C)OC2=O)c1O [Compound 392] | < 25

Same assay, conditions: Plasmopara, 24 h, read-out: PLASVI in vivo 1 Day Protectant, grape plants, 100 ppm, 24 hour protectant; control of fungal infection vs untreated plants

Row | Structure (SMILES) | pest or weed control at 100 ppm [%]
50 | COc1ccnc(C(=O)Nc2ccc(Oc3ccc(C(F)(F)F)cn3)cc2)c1O [Compound 462] | < 25
51 | O=C(NCC1CCCc2ccccc21)c1nc(Br)ccc1O (stereo not drawn) [Compound 485] | 25 to 74
52 | Cc1ncc(C(=O)N[C@H]2COC(=O)[C@H](Cc3ccccc3)[C@@H](OC(=O)C(C)C)[C@H](C)OC2=O)c(O)n1 [Compound 542] | < 25
53 | COC(=O)C(COC(=O)C(COC(=O)C(C)C)Cc1ccccc1)NC(=O)c1nccc(OC)c1OC(C)=O (stereo not drawn) [Compound 587] | < 25
54 | CC(=O)Oc1cccnc1C(=O)Nc1ccc(Oc2cccc(C(F)(F)F)c2)cc1 [Compound 570] | < 25
55 | COc1ccnc(C(=O)NC(COC(=O)CCc2ccccc2)C(=O)OC(C)COC(=O)C(C)C)c1OC(C)=O (stereo not drawn) [Compound 590] | < 25
56 | CSc1ccnc(C(=O)NC2COC(=O)[C@H](Cc3ccccc3)[C@@H](OC(=O)C(C)C)[C@H](C)OC2=O)c1O (stereo partly drawn) [Compound 478] | 25 to 74
57 | CC(C)(C)CNC(=O)c1cccnc1O [Compound 514] | < 25
58 | COC(=O)C(COC(=O)CC(C)OC(=O)C(C)C)NC(=O)c1nccc(OC)c1OC(C)=O (stereo not drawn) [Compound 586] | < 25
59 | CC(NC(=O)c1ccncc1O)c1ccc(OC(F)(F)F)cc1 (stereo not drawn) [Compound 511] | 25 to 74
60 | COc1ccnc(C(=O)NC2CC(C)(C)CC(C)(C#N)C2)c1OC(C)=O (stereo not drawn) [Compound 574] | < 25
61 | O=C(Nc1ccccc1Oc1ccc(C(F)(F)F)cc1)c1nc(Br)ccc1O [Compound 493] | < 25
62 | COc1ccnc(C(=O)N[C@@H]2O[C@H](COC(C)=O)[C@H](OC(C)=O)[C@H](OC(C)=O)[C@H]2OC(C)=O)c1OC(C)=O [Compound 591] | 25 to 74
63 | CC(C)C(=O)O[C@H]1[C@H](C)OC(=O)[C@@H](NC(=O)c2nnccc2O)COC(=O)[C@@H]1Cc1ccccc1 [Compound 532] | 25 to 74
64 | CCCC[C@H]1C(=O)O[C@H](C)C(NC(=O)c2cccc(NC(=O)c3nccc(OC)c3O)c2O)C(=O)O[C@@H](C)[C@@H]1OC(=O)CC(C)C (stereo partly drawn) [Compound 473] | < 25
65 | COc1ccnc(C(=O)Nc2ccc(Oc3cc(Oc4ccccc4)ncn3)cc2)c1O [Compound 468] | < 25
66 | COc1ccc(C(C)NC(=O)c2nc(Br)ccc2O)cc1 (stereo not drawn) [Compound 486] | < 25
67 | O=C(NC1CCCCC1)c1cccnc1O [Compound 515] | 25 to 74
68 | COc1ccc(CNC(=O)c2nc(Br)ccc2O)cc1 [Compound 482] | < 25
69 | CSc1ccnc(C(=O)Nc2ccc(Oc3cccc(C(F)(F)F)c3)cc2)c1O [Compound 479] | < 25
